Our source for the self-cleavage values is the RNAGym collection of RNA variant scans (doi:10.7554/elife.90254).

The source gives no read counts; variants with many changes may rest on few reads.

First the molecules themselves.
B1: LINE1-mini (parent)
chain: GGCAGAGCUCAACACAGCGUGGCAAAGUGGCUGUGGCUAGACUGCC

This data set covers variants of B1. The data set can be described thus: self-cleavage, relative activity (ratio to wild type); higher = more cleavage; in vitro, sequencing; the parent is a self-cleaving ribozyme.
GGCAGAGCUUAACACAGCGAGGCUAAGUGGCUGUGGCCAGCCAGCC: the self-cleavage was 0.01. The same measure for GGCAGAGCUCCCCACAGCGUGGCAAAGUUGGUGUGGCUAGACUGCC: 0.02; for GGCAGAGCUCCACACAGCGUGGCACAGUGACUGUGGGUACACUGCC: 0.01.

Take GGCAGAGCUCCACACUGCGUGUCAAAGUGGCUGUGGCGAGACUGCC: the self-cleavage stood at 0. The figure for GGCAGAGCUCCACACAGCGUGGCAACCUGGCUGUGCCUAGACUGCC is 0; for GGCAGAGCUCCAAACAGCGUUGCAAAGUGGCUGUGGCUAGACUGCU it is 0.02; for GGCAGAGCUCCACACAGAGUGGCAAAGUGGCUGUGGCCGGACUACC it is 0.04.

With GGCAGAGCUCCCCACAGUGUGGCAAAAUGGCUGUGGCUAGACUGAC, the self-cleavage was 0.03.

With GGCAGAGCUUAACACAGCGUGGCAAAGUGGCUGUGUCUAGACUGCG, the self-cleavage was 0.02. The figure for GGCAGAGCUCCAAACAGCGUGGCAAAGUGGCUGUUGCUAGACUGCC is 0.03; for GGCAGAGCUCCACACAGAGUGGCAAAGUGGCGGUGGCUAGACUGCC it is 0.01; for GGCAGAGCUCCUCUCAGCGUGGCAAAGUGGCUGUGGCUAGACUGCC it is 0.03.

Take GGCAGAGCUCCACACAGUUUGCCAAAGUGGCUGUGGCUAGACUGCC: the self-cleavage was determined as 0. The same measure for GGCAGAGCUCCACGCAGCGUGGCAAAGUGGCUGUGUCUAGACUGCC: 0.02; for GGCAGAGCUCCCUGCAGCGUGGCAAAGUGGCUUUGGCUAGACUGCC: 0.01; for GGCAGAGCUCCACCCAGCAUGGCGAAGUGGCUGUGGCUAGACUGCC: 0.03. The same measure for GGCAGAGCUCCACUCAGCCUGGCAAAGUGGCUGUGUCUUGACUGCC: 0.01.

For the variant GGCAGAGCUCCAAACAGCGUGGCAAAGUGGCUCUGGCUAGACUGCC, the self-cleavage is 0. Consider GGCAGAGCUCCACGCAGCGUGGCAAAGUAGCUGUGGUUAGACUGCC, for which the self-cleavage was 0.02. The same measure for GGCAGAGCUCCACAGAGCGUGGCAAAGUGGCUGUAGAUAGACUGCC: 0.01; for GGCAGAGCUCCACUCAGCGUGGCAAAGUGGCUUUGGCUAGACUGCC: 0.02; for GGCAGAGCUCCAUACAGCGUGGAAAAGUGGCUGUGGCUAGACUGCC: 0.04. As to GGCAGAGCUCCGCACAGCGUGGCAAAGUGGCCGUGUCUAGACUGCC, the self-cleavage was found to be 0.03. On to GGCAGAGCUUAACACAGCGUGGCAAAGUGGCUGUCACUAGACUGCC, for which the self-cleavage was 0.02.

As to GGCAGAGCUCCACGCAGCGUGGCAUAGUGGCUGUGGCUAGACUGCC, the self-cleavage was determined as 0.01. The same measure for GGCAGAGCUCCAGAUAGGGUGGCAAAGUCGCAGUCGCUCGACUGCC: 0. On to GGCAGAGCUUAACACAGCGGGGCAAAGUGGCUGUGGCUAGACGACC, for which the self-cleavage amounted to 0.02.

On to GGCAGAGCUCCACCCAGCGUGGCAAAGUGGCUGUGGCUAGGCUGCC, for which the self-cleavage is 0.02.

Turning to GGCAGAGCUCCACAGAGCGUGGCAAAGUCGCUGUGGCUAGACUGCC, the self-cleavage was 0.03. The same measure for GGCAGAGCUCCACUCAGCGUUGCAAAGUGGCUGUGGCUAGACUCCC: 0.04; for GGCAGAGCUCCACACAGCGUGGCCACGUGGAUGUGGCUAGACUGCC: 0.03; for GGCAGAGCUCCACAAAGCGUGCCAACGUGGCUGUGGCUAGUCUGCC: 0.01. As for GGCAGAGCUCCACAAAGCGUGGCAAAGAGGCUGUGGCAAGACUGCG, the self-cleavage is 0. The figure for GGCAGAGCUCCAGACAGCGUGGCAAAGUUGCUCUGGCUAUACUGCC is 0.01; for GGCAGAGCUUAACACAGCGUGGCAAAGUGGCUGUGGCUACACUGGC it is 0.08. In the case of GGCAGAGCUCCACACAGCGUGGCAAAGUGGCUGUGGCUAGCCUGCA, the self-cleavage turned out to be 0.03. The figure for GGCAGAGCUCCACAGAGCGUGGCAAAGUGGCUGUGGCUAGACUGCA is 0.01; for GGCAGAGCUUAACACAGCGUGGCAAAGUGGCUGUGCCUCGAAUGCC it is 0.05. For the variant GGCAGAGCUCCCCACAGCGUGGCAUAGUGGCUGUGGCUAGACUGAC, the self-cleavage came to 0.02. The same measure for GGCAGAGCUCCAAAAAGCGUGGCAAAGUGGCUGUGGCUAGACUGCC: 0.01; for GGCAGAGCUCCACACAGCGUGGCGAAGUGGCUGUGACUAGACUGCC: 0; for GGCAGAGCUUAACACAGCGCGGCAAGGUGGCUGUCCCUAGACUGCC: 0.03. For GGCAGAGCUUAACACAGCGAGCCAAACUGGCUGUGGCUAGACUGCC, the self-cleavage was 0.12. The same measure for GGCAGAGCUCCACACAGCGUGGCUAAGUGUCUGUGGCCAGACUGCC: 0.01.

Regarding GGCAGAGCUCCAUACAACGUGGCAAAGUGGCUGUGGCUAUACUGCC, the self-cleavage turned out to be 0.04. Regarding GGCAGAGCUCCAUACAGCGCCGCAAAGUGUCUGUGGCUAGACUGCC, the self-cleavage was determined as 0. The same measure for GGCAGAGCUCCACAAAGCGUGGCAAAGUGGCUGUGGCUAGACUGCA: 0.06; for GGCAGAGCUCCACACGGCGUGGCCAAGUGGCUGUGGCUAGCAUGCC: 0. The same measure for GGCAGAGCUUAACACAGCGGGGCAAAGUGGCUGUGCCUAGACUGCC: 0.04; for GGCAGAGCUCCAGACAGCGUGGCAAAGUGGCUGUGGCUGGACUGCC: 0.02; for GGCAGAGCUCCACACAGCGUGGCCAAGUGGCUGCGGCUAGACUUCC: 0. The figure for GGCAGAGCUUAACACAGCGUGGCAAAGUGGCUGUGGCCAGACGGCC is 0.01; for GGCAGAGCUUAACACAGCGUGGCAAAGUGGCUGUGGCAACACUGCC it is 0.03. In the case of GGCAGAGCUCCAUACAGCGUGGCAAAGUGGCUGGGACUAGACUGCC, the self-cleavage was 0.03. The figure for GGCAGAGCUCCACAUAGCGUGACAAAGUGGCUGUGGCUAGACUGCC is 0.01; for GGCAGAGCUCCGCACAGCUUGGCAAAGUGGGUGUGGCUAGACUGCC it is 0.
